Among the data in PubChem BioAssay (NCATS) are max response and AC50 values, retold here.

What is called AC50 is the midpoint of the concentration-response curve, whichever way the signal moves.

Some of the results follow. Shown are side measurements of this screen, not its main read-out; they come without a call. Compounds called inactive in the main read-out are mostly missing here. Potencies come from curve fits of mixed quality, noted in brackets.
Tags give direction and shape of the fitted curve.

The nature of the first assay: qHTS Assay for Lipid Storage Modulators (AID 1519). The settings on record: Drosophila S3 cells, BODIPY lipid droplet/cell ratio, laser cytometry; measured here: cell count channel max response; cells loaded with oleic acid. Put shortly:
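Cells seeded at 5,000 per well were treated with compounds over a concentration series and loaded with oleic acid (400 uM, as added). Lipid droplet fluorescence (488 nm excitation, 500-530 nm channel) was read by laser-scanning cytometry and normalized to 20 uM Triacsin C.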
(In general: Quantitative high-throughput screening tests each substance at several concentrations.)
Take `COc1ccccc1-c1cc(-n2ccnc2)ncn1`: the max response was found to be 48.3%.

As to `O=c1c(-c2cccc(F)c2)nc2cncnc2n1-c1ccccc1`, the max response worked out at 20.2%.

With `COc1ccc(Oc2ncc3nc(-c4ccc(Cl)cc4)c(=O)n(C)c3n2)cc1`, the max response is 23.2%.

Turning to `Cc1nc2cnc(Oc3ccccc3)nc2n(Cc2cccs2)c1=O`, the max response was 35.9%.

With `COc1ncc2nc(-c3cccs3)c(=O)n(Cc3ccc(F)cc3)c2n1`, the max response came to 34.6%.

On to `CC1(C)CC[C@]2(C(=O)O)CC[C@]3(C)C(=CCC4[C@@]5(C)CC[C@H](O)C(C)(C)C5[C@H](O)C[C@]43C)C2C1` (stereo not given in full), for which the max response is 63.1%.

For the compound `CCNc1ncc2nc(-c3cc(F)cc(F)c3)c(=O)n(-c3ccc(OC)cc3)c2n1`, the max response stood at 33.8%.

Turning to `CCNc1ncc2nc(-c3ccc(Cl)cc3)c(=O)n(Cc3cccc(OC)c3)c2n1`, the max response turned out to be 34.9%.

For `CC1(C)C(OC(=O)CCC(=O)O)CC[C@]2(C)C1CC[C@@]1(C)C2C(=O)C=C2[C@@H]3C[C@@](C)(C(=O)O)CC[C@]3(C)CCC21C` (stereo not given in full), the max response came out at 27.2%.

As to `O=c1cnc2cnc(Oc3cccc(Cl)c3)nc2n1CCc1ccccc1`, the max response was 32%.

As to `O=c1cc(-c2cccc(O)c2O)oc2ccccc12`, the max response stood at 67.9%.

`COc1cccc(Cn2c(=O)c(-c3cccs3)nc3cnc(N4CCOCC4)nc32)c1`: the max response came out at 24.8%.

As to `O=C(c1cnccn1)N1CCC2(CCCN(Cc3ccncc3)C2)CC1`, the max response stood at 32.5%.

Take `CCN(Cc1ccncc1)C(=O)[C@@H](CO)c1ccccc1`: the max response is 51.1%.

In the case of `Cc1ccccc1-c1cncnc1NCc1cccnc1`, the max response was found to be 43%.

As for `COc1cc2ccc(=O)oc2cc1O`, the max response worked out at 62.5%.

Turning to `COCCn1c(=O)c(-c2cn(C)c3ccccc23)nc2cnc(Oc3ccccc3)nc21`, the max response is 27.3%.

`CCNc1ncc2nc(-c3cccs3)c(=O)n(Cc3cccs3)c2n1`: the max response came out at 43.5%.

Turning to `CN/C(=C\[N+](=O)[O-])NCCSCc1ccc(CN(C)C)o1`, the max response was -13.6%.

As for `C/C(=C\COc1cc(=O)[nH]c2ccccc12)CCC(O)C(C)(C)O` (stereo not given), the max response was determined as 98.3%.

Regarding `COc1ccc2c(OC)c3ccoc3nc2c1OC`, the max response worked out at 130%.

As for `COCCn1c(=O)c(-c2ccc(OC)cc2)nc2cnc(Nc3cccc(OC)c3)nc21`, the max response came out at 34.3%.

For `COc1ccc(Oc2ncc3ncc(=O)n(Cc4cccs4)c3n2)cc1`, the max response amounted to 19.7%.

In the case of `COc1ccc(-n2c(=O)c(-c3ccccc3)nc3cnc(N4CCOCC4)nc32)cc1`, the max response came out at 24.7%.

As to `O=C(c1cc(C(F)(F)F)cc(C(F)(F)F)c1)N1CCC2(CC1)CN(c1ncccn1)C2`, the max response came to 30.1%.

For the compound `COc1ccccc1-c1nc(NCCN2CCOCC2)c2ccccc2n1`, the max response amounted to 36.2%.

As for `Cc1csc(-c2nc3ccccc3n2C)n1`, the max response amounted to 93.5%.

As for `COc1cccc(Cn2c(=O)c(-c3cn(C)c4ccccc34)nc3cnc(OC)nc32)c1`, the max response is 32.6%.

With `COCCn1c(=O)c(CCc2ccccc2)nc2cnc(N3CCNCC3)nc21`, the max response came to 36.6%.

On to `COc1ccc2[nH]cc(CCNc3ccnc(-c4ccoc4)n3)c2c1`, for which the max response came out at 19.2%.

As to `COc1ccccc1-c1nc(NCc2cccs2)c2ccccc2n1`, the max response turned out to be 15%.

For `CS(=O)(=O)Nc1cccc(-c2cc(NCc3cccs3)ncn2)c1`, the max response is 40.2%.

For the compound `COc1ccccc1CNc1cc(-c2ccc(C(=O)N(C)C)cc2)ncn1`, the max response came out at 39.1%.

On to `c1cncc(-c2cc(NCc3cccs3)ncn2)c1`, for which the max response came to 38.7%.

Regarding `COc1ccc(Oc2ncc3nc(C)c(=O)n(Cc4ccc(F)cc4)c3n2)cc1`, the max response worked out at 18.3%.

Turning to `N#Cc1cccc(NC(=O)N2CC[C@@]3(CCCN(C(=O)c4csnn4)C3)C2)c1`, the max response was 27.1%.

As to `c1ccc(Nc2nc(-c3cccnc3)nc3ccccc23)cc1`, the max response was 20.1%.

On to `COc1ccccc1CCn1c(=O)c(-c2cn(C)c3ccccc23)nc2cncnc21`, for which the max response came to 19.9%.

With `COc1ccccc1CNc1ncncc1-c1ccc(C(=O)N(C)C)cc1`, the max response came out at 57.2%.

`COc1cc(/C=C\C(=O)N2CCC=CC2=O)cc(OC)c1OC`: the max response was -58.5%.

The same assay, now with this note: Drosophila S3 cells, BODIPY lipid droplet/cell ratio, laser cytometry; measured here: cell number channel AC50; cells loaded with oleic acid.
`COc1ccccc1-c1cc(-n2ccnc2)ncn1`: the AC50 was 501 nM [rising, full curve, poor fit].

In the case of `O=c1c(-c2cccc(F)c2)nc2cncnc2n1-c1ccccc1`, the AC50 is 89.1 nM [rising, full curve, poor fit].

`COc1ccc(Oc2ncc3nc(-c4ccc(Cl)cc4)c(=O)n(C)c3n2)cc1`: the AC50 was 56.2 nM [rising, full curve, poor fit].

With `Cc1nc2cnc(Oc3ccccc3)nc2n(Cc2cccs2)c1=O`, the AC50 is 8910 nM [rising, partial curve].

For `COc1ncc2nc(-c3cccs3)c(=O)n(Cc3ccc(F)cc3)c2n1`, the AC50 is 100 nM [rising, full curve].

Turning to `CC1(C)CC[C@]2(C(=O)O)CC[C@]3(C)C(=CCC4[C@@]5(C)CC[C@H](O)C(C)(C)C5[C@H](O)C[C@]43C)C2C1` (stereo not given in full), the AC50 was 7940 nM [rising, full curve].

In the case of `CCNc1ncc2nc(-c3cc(F)cc(F)c3)c(=O)n(-c3ccc(OC)cc3)c2n1`, the AC50 was 35.5 nM [rising, full curve, poor fit].

For `CCNc1ncc2nc(-c3ccc(Cl)cc3)c(=O)n(Cc3cccc(OC)c3)c2n1`, the AC50 was 89.1 nM [rising, full curve, poor fit].

Consider `CC1(C)C(OC(=O)CCC(=O)O)CC[C@]2(C)C1CC[C@@]1(C)C2C(=O)C=C2[C@@H]3C[C@@](C)(C(=O)O)CC[C@]3(C)CCC21C` (stereo not given in full), for which the AC50 was 3550 nM [rising, full curve, poor fit].

In the case of `O=c1cnc2cnc(Oc3cccc(Cl)c3)nc2n1CCc1ccccc1`, the concentration at half-maximal activity (AC50) was 5620 nM [rising, full curve, poor fit].

In the case of `O=c1cc(-c2cccc(O)c2O)oc2ccccc12`, the AC50 is 12600 nM [rising, partial curve, poor fit].

As for `COc1cccc(Cn2c(=O)c(-c3cccs3)nc3cnc(N4CCOCC4)nc32)c1`, the AC50 was 2510 nM [rising, full curve, poor fit].

Consider `O=C(c1cnccn1)N1CCC2(CCCN(Cc3ccncc3)C2)CC1`, for which the AC50 was 5.62 nM [rising, full curve, poor fit].

As for `CCN(Cc1ccncc1)C(=O)[C@@H](CO)c1ccccc1`, the AC50 is 35500 nM [rising, single point].

For `Cc1ccccc1-c1cncnc1NCc1cccnc1`, the AC50 is 2510 nM [rising, full curve].

For `COc1cc2ccc(=O)oc2cc1O`, the AC50 was 31600 nM [rising, partial curve, poor fit].

For the compound `COCCn1c(=O)c(-c2cn(C)c3ccccc23)nc2cnc(Oc3ccccc3)nc21`, the AC50 was 79.4 nM [rising, full curve, poor fit].

As for `CCNc1ncc2nc(-c3cccs3)c(=O)n(Cc3cccs3)c2n1`, the AC50 was 5010 nM [rising, partial curve].

In the case of `CN/C(=C\[N+](=O)[O-])NCCSCc1ccc(CN(C)C)o1`, the AC50 was 20000 nM [falling, single point].

Regarding `C/C(=C\COc1cc(=O)[nH]c2ccccc12)CCC(O)C(C)(C)O` (stereo not given), the AC50 is 11200 nM [rising, partial curve].

`COc1ccc2c(OC)c3ccoc3nc2c1OC`: the AC50 is 141 nM [rising, full curve].

Regarding `COCCn1c(=O)c(-c2ccc(OC)cc2)nc2cnc(Nc3cccc(OC)c3)nc21`, the AC50 is 2820 nM [rising, full curve, poor fit].

As for `COc1ccc(Oc2ncc3ncc(=O)n(Cc4cccs4)c3n2)cc1`, the AC50 was 2240 nM [rising, partial curve, poor fit].

Take `COc1ccc(-n2c(=O)c(-c3ccccc3)nc3cnc(N4CCOCC4)nc32)cc1`: the AC50 is 5010 nM [rising, full curve, poor fit].

For the compound `O=C(c1cc(C(F)(F)F)cc(C(F)(F)F)c1)N1CCC2(CC1)CN(c1ncccn1)C2`, the AC50 is 25100 nM [rising, partial curve, poor fit].

Regarding `COc1ccccc1-c1nc(NCCN2CCOCC2)c2ccccc2n1`, the AC50 was 2820 nM [rising, full curve].

For the compound `Cc1csc(-c2nc3ccccc3n2C)n1`, the concentration at half-maximal activity (AC50) is 2510 nM [rising, full curve].

For the compound `COc1cccc(Cn2c(=O)c(-c3cn(C)c4ccccc34)nc3cnc(OC)nc32)c1`, the AC50 was 8910 nM [rising, partial curve, poor fit].

Consider `COCCn1c(=O)c(CCc2ccccc2)nc2cnc(N3CCNCC3)nc21`, for which the AC50 was 2000 nM [rising, full curve].

With `COc1ccc2[nH]cc(CCNc3ccnc(-c4ccoc4)n3)c2c1`, the AC50 was 1000 nM [rising, full curve].

Regarding `COc1ccccc1-c1nc(NCc2cccs2)c2ccccc2n1`, the AC50 is 708 nM [rising, full curve].

On to `CS(=O)(=O)Nc1cccc(-c2cc(NCc3cccs3)ncn2)c1`, for which the AC50 was 5010 nM [rising, partial curve].

Turning to `COc1ccccc1CNc1cc(-c2ccc(C(=O)N(C)C)cc2)ncn1`, the AC50 is 7940 nM [rising, partial curve, poor fit].

As to `c1cncc(-c2cc(NCc3cccs3)ncn2)c1`, the AC50 was 20000 nM [rising, partial curve, poor fit].

For the compound `COc1ccc(Oc2ncc3nc(C)c(=O)n(Cc4ccc(F)cc4)c3n2)cc1`, the AC50 was 447 nM [rising, full curve].

In the case of `N#Cc1cccc(NC(=O)N2CC[C@@]3(CCCN(C(=O)c4csnn4)C3)C2)c1`, the AC50 was 398 nM [rising, partial curve, poor fit].

`c1ccc(Nc2nc(-c3cccnc3)nc3ccccc23)cc1`: the AC50 is 891 nM [rising, full curve].

For `COc1ccccc1CCn1c(=O)c(-c2cn(C)c3ccccc23)nc2cncnc21`, the AC50 was 126 nM [rising, full curve, poor fit].

As to `COc1ccccc1CNc1ncncc1-c1ccc(C(=O)N(C)C)cc1`, the AC50 was 31600 nM [rising, partial curve].

For `COc1cc(/C=C\C(=O)N2CCC=CC2=O)cc(OC)c1OC`, the AC50 is 15800 nM [falling, single point].
